± gives the standard deviation of the averaged measurements. Over roughly 33,000 sequences, “E-score (dimensionless, -0.5 to 0.5)” has its median near -0.049; the highest 2% begin near 0.37. The list shows a part of the results.
What follows are sequences tested on T1, PmTbr T-box DNA-binding domain (GST fusion) (assay: PBM E-score of 8-mer (E-score (dimensionless, -0.5 to 0.5)); Tbr is Tbrain of the sea star Patiria miniata (Pm) or the sea urchin Strongylocentrotus purpuratus (Sp); higher = stronger binding preference; most listed sequences are background and not binding sites). Conditions: the construct has about 5 more residues each side.
T1 sequence: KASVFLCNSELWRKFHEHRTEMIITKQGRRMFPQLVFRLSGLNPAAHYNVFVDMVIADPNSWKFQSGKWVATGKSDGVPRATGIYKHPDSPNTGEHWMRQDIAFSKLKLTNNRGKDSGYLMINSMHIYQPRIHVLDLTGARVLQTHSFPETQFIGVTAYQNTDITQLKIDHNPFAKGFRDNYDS
Outline: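 GST-fused Tbr T-box DNA-binding domains (the whole T-box plus about five flanking residues) were expressed in BL21 E. coli at 20 °C and purified by glutathione affinity chromatography. Universal Agilent oligonucleotide arrays were made double-stranded by primer extension, incubated with 200 nM protein in PBS (pH 7.5), then scanned and quantified. Every ungapped 8-mer was scored from probe intensities. The Universal PBM Analysis Suite gave each word an enrichment E-score, averaged over duplicate arrays.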

Sequence	PBM E-score of 8-mer
AGGCCCCG	-0.298 ± 0.012
ATACCTGA	-0.0897 ± 0.035
CTCATAAA	-0.145 ± 0.01
CCTAGACA	-0.0098 ± 0.026
CGATTTGC	0.184 ± 0.057
AGAGCTCA	-0.322 ± 0.044
ACCTCATA	0.0396 ± 0.012
ATGTGTAG	0.148 ± 0.05
CTCGTGTA	0.0334 ± 0.019
GCGATCGC	0.174 ± 0.048
GGAGGTAA	-0.034 ± 0.12
GGCTTGAC	-0.102 ± 0.016
ACAATGAA	0.0822 ± 0.054
AGCCGGTA	-0.175 ± 0.042
CGCTGTGA	0.229 ± 0.0037
CCCCCCAG	-0.169 ± 0.051
GATTACAA	-0.0245 ± 0.06
GGGACAGA	-0.0601 ± 0.073
ATTGGTCG	-0.0157 ± 0.093
TCAAGCGA	-0.053 ± 0.061
CGCGACGC	0.239 ± 0.017
CGTACTCA	-0.0458 ± 0.053
CCGGCGCA	-0.112 ± 0.04
CAAGACAC	0.223 ± 0.027
CTTGCAAG	0.341 ± 0.067

Sequence	PBM E-score of 8-mer
ATAGCGTA	-0.0291 ± 0.031
ATATGTTA	-0.147 ± 0.063
TACCCTGA	-0.104 ± 0.07
CTGACGAC	-0.00658 ± 0.017
ACAGCATC	-0.149 ± 0.087
AATGAGGA	-0.349 ± 0.061
CCAATAGC	0.0682 ± 0.031
CTGGACAG	-0.0594 ± 0.021
ATTAATTG	-0.0107 ± 0.016
ACGTTCCC	-0.118 ± 0.035
AACTTGTG	0.171 ± 0.021
AGAATCTA	0.151 ± 0.0012
CGTCCAAA	-0.157 ± 0.0094
ATGGGAAG	-0.187 ± 0.0021
AAACGATA	0.024 ± 0.047
ATTTTAGG	-0.17 ± 0.064
CACCGACA	0.274 ± 0.027
AGAGTGAG	0.123 ± 0.022
CGGAGGAC	-0.28 ± 0.012
AACGGGTA	0.105 ± 0.042
AAAAGTAG	-0.176 ± 0.048
ACTTGTCA	0.4044 ± 0.0039
AGCAAGAC	-0.124 ± 0.035
GTGCCCGA	0.0236 ± 0.034
AAGTACTG	-0.137 ± 0.025

Sequence	PBM E-score of 8-mer
ACACGCCG	0.236 ± 0.017
AAACACAA	0.093 ± 0.021
ACATCCCG	0.0506 ± 0.012
AGACGCGA	0.0338 ± 0.11
CTTGCGTA	-0.00524 ± 0.0081
GCAGAAAC	-0.123 ± 0.011
AGATCGCG	0.302 ± 0.013
AAGTTACG	-0.089 ± 0.012
GACACGCA	0.141 ± 0.029
ACTAAAAG	0.0789 ± 0.096
GCTAGATA	0.00722 ± 0.074
TATAGTCA	-0.041 ± 0.008
GTATGGTA	-0.161 ± 0.0085
CCAGACTC	-0.255 ± 0.029
AAGCTGAG	-0.0617 ± 0.068
CTAAGAGA	-0.23 ± 0.017
CGAGAACC	0.0878 ± 0.053
CCCCTAGG	-0.0463 ± 0.05
GAGAGCAC	0.00284 ± 0.03
GACAGTAC	-0.048 ± 0.096
CTTAGTTC	-0.226 ± 0.032
ACCGTTCT	-0.0546 ± 0.035
GAATCTAC	-0.222 ± 0.02
GAGTGCAA	0.0826 ± 0.02
AAGACGGC	0.0428 ± 0.031

Sequence	PBM E-score of 8-mer
TCAAAGGA	-0.236 ± 0.066
ATGTTATG	0.0197 ± 0.062
CGCAATGC	-0.0307 ± 0.0037
ACCACAGT	-0.0574 ± 0.015
GTAGATAC	-0.283 ± 0.12
CACCACTA	0.128 ± 0.087
CAGGACCC	-0.269 ± 0.0099
CGCAGTGA	0.00468 ± 0.0035
ATTGTAAC	0.0315 ± 0.012
CCACGAAC	0.0733 ± 0.013
ACATGACG	0.114 ± 0.066
CCAGGACG	-0.0996 ± 0.027
GCAGGTCC	-0.21 ± 0.029
CAAAATTA	0.196 ± 0.077
CTGCTTCA	0.072 ± 0.033
CCCCAAGG	0.0817 ± 0.065
CCAACTGA	-0.105 ± 0.0028
AAACATGT	0.0785 ± 0.032
CGTCATAA	-0.0926 ± 0.0093
GTTGCACA	0.154 ± 0.0076
AAATCCAC	-0.0717 ± 0.046
AGAGCTTG	-0.238 ± 0.032
ATTCACAG	0.355 ± 0.0076
ATGAGAGG	-0.169 ± 0.061
AGCCCGTA	-0.113 ± 0.068

Sequence	PBM E-score of 8-mer
ACGAAGAA	-0.157 ± 0.018
AACGTTTA	-0.232 ± 0.0033
GCCACTCC	-0.0106 ± 0.059
GTACGATA	-0.168 ± 0.017
ACGGAATA	0.0775 ± 0.041
ACGCCGGA	-0.0954 ± 0.06
AAACACCC	0.227 ± 0.027
CCCGTCGC	0.0821 ± 0.044
ACTGCTAG	0.0461 ± 0.039
AGACTTTG	-0.00767 ± 0.055
AGGGGGGG	-0.254 ± 0.013
AATTTTGA	-0.152 ± 0.0084
GATCAGTA	-0.214 ± 0.022
CCAAGGAA	-0.24 ± 0.073
AAAGTGTC	0.4215 ± 0.0027
ACTATGGA	-0.246 ± 0.02
CCCGTCGA	-0.016 ± 0.0077
GATAAAAA	0.105 ± 0.14
ATATACTG	-0.178 ± 0.023
ATTTTTTC	-0.128 ± 0.13
AGGCAAGC	-0.0192 ± 0.0055
CGAGATTC	0.0814 ± 0.0071
CATGATAC	-0.107 ± 0.045
CGTCCCTA	-0.0903 ± 0.03
CTGGCTGC	-0.078 ± 0.025

Sequence	PBM E-score of 8-mer
CCAAGTAG	-0.0237 ± 0.021
CCTGGTCG	0.00532 ± 0.059
CTTTTGCC	-0.00579 ± 0.051
GGACAGCA	-0.126 ± 0.077
GAGACCCC	-0.14 ± 0.034
ATTTCCTG	0.0623 ± 0.0096
CGAATGAA	-0.0823 ± 0.076
GATATAAA	-0.127 ± 0.017
ACGGCAAC	0.0535 ± 0.1
GATTATGC	-0.19 ± 0.0085
AAGAACCT	-0.12 ± 0.06
CCCGAGCG	-0.122 ± 0.12
CCTAATGA	-0.231 ± 0.03
ACTATTGG	0.107 ± 0.044
CTATGTCA	0.116 ± 0.015
CGTTGAGA	0.0458 ± 0.03
AGGCTTTC	0.0312 ± 0.02
ACAACTTG	0.295 ± 0.043
ACACCACA	0.377 ± 0.008
ACCCTTGC	0.0156 ± 0.051
GTAATTAA	-0.125 ± 0.12
GGTATCTA	-0.354 ± 0.0049
CTAACGTA	-0.0997 ± 0.014
AGAGTGAC	0.19 ± 0.023
TCATATGA	-0.186 ± 0.13

Sequence	PBM E-score of 8-mer
ACGCTCTC	0.0529 ± 0.013
GGAAACGA	0.00114 ± 0.1
AAGCAGCC	-0.0997 ± 0.03
AGAATTAA	-0.201 ± 0.015
AATGCCAT	-0.136 ± 0.014
AACCGGTT	0.0785 ± 0.12
TCCGCCGA	-0.0905 ± 0.04
CAGGTCAG	-0.093 ± 0.034
GCAGGTCA	0.103 ± 0.027
AACCGGGT	-0.132 ± 0.027
ACACAGAA	-0.178 ± 0.04
TATCCAGA	-0.357 ± 0.018
CCGGGCCG	-0.2697 ± 0.0024
AACAGAAC	-0.148 ± 0.12
CACCTTAC	0.394 ± 0.0074
AGGCTCTG	-0.0891 ± 0.012
TAGAAGGA	-0.241 ± 0.062
ACACATGA	0.214 ± 0.043
ATAGCGTG	0.148 ± 0.029
ATTGATTC	-0.0692 ± 0.092
TCAACTGA	0.0715 ± 0.01
AAATGGTG	0.075 ± 0.0028

From the supplement of paper PMC4166925
